Laboratory results as given in publication PMC4336329 (PLoS ONE, 2015).
Screen size: about 310,000 compounds; about 14,000 (4.5%) showed an effect of 50% or more. Effects have a minus sign here. Some of the results follow.

biological target: human ether-à-go-go-related gene (hERG) potassium channel (human, UniProt Q12809); experiment: primary screen, population patch clamp on CHO cells stably expressing hERG
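Further: peak tail current of the secondary pulse compared with the same well before compound.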

human ether-à-go-go-related gene (hERG) potassium channel, sequence (Q12809 whole entry, looked up): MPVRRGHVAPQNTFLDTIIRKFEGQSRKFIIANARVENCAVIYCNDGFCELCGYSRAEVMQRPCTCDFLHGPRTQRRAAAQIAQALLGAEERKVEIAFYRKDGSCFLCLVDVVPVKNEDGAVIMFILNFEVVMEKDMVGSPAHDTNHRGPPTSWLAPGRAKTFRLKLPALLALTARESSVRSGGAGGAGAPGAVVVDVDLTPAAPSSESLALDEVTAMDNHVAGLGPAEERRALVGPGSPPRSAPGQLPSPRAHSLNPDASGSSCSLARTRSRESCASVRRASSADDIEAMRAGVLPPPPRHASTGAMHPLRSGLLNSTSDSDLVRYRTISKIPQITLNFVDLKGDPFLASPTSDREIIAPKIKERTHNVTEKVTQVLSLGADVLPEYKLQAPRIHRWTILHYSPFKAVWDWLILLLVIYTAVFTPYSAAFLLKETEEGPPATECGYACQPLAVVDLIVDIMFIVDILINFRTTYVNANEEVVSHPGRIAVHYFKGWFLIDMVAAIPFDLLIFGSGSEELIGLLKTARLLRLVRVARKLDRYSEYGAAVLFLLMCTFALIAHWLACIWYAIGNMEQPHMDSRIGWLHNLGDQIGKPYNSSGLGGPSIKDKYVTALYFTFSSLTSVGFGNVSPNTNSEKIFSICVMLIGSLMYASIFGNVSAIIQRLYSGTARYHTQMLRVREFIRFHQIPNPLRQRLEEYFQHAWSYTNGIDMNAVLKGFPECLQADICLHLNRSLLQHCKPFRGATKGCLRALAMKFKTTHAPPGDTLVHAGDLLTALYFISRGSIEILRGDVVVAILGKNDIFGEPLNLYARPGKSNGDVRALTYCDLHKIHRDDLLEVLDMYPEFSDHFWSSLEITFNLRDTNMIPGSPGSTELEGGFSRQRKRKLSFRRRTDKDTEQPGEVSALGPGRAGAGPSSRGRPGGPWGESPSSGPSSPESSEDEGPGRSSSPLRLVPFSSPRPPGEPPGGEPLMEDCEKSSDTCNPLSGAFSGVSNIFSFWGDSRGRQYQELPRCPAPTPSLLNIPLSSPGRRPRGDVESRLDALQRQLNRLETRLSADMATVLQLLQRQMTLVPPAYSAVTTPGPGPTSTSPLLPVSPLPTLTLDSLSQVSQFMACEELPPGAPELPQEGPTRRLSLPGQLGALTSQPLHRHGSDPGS

SMILES | hERG current change (%, negative = inhibition) at 10uM [%]
CC1=CCC(C(=O)O)(C(=O)N/N=C/c2cccs2)C(c2ccc(F)cc2)C1 (stereo not drawn) | 0.214
COc1ccc(Br)cc1CN1CCN(CCO)CC1 | -0.9
CC1Cc2ccccc2N1C(=O)CSc1ncc(-c2ccc(F)cc2)n1C (stereo not drawn) | -45.7
O=C(O)CC/C(=C\c1cc([N+](=O)[O-])ccc1Cl)c1nc2ccccc2s1 | -1.22
CCCCn1c(-c2csc3c2CCC(C)C3)n[nH]c1=S (stereo not drawn) | 6.79
Cc1cc(C)cc(OCC(=O)N/N=C/c2ccncc2)c1 | -5.51
Cc1ccc(OCC(=O)NCc2cccnc2)cc1 | 6.98
Cc1c(-n2c(CN3C(=O)c4ccccc4C3=O)nc3ccccc3c2=O)c(=O)n(-c2ccccc2)n1C | 3.43
Cn1c(=O)cc(SCC(=O)N2CCC3(CC2)OCCO3)c2ccccc21 | -1.64
Cc1ccc2c(c1)=C/C(=C\c1c(O)[nH]c(=O)[nH]c1=O)C(=O)N=2 | -20
CCn1c(/C=C/N(C(C)=O)c2ccccc2)[n+](CC)c2ccc(Cl)cc21.[I-] | 2.3
CC(C)Oc1cccc(-c2cc(C(=O)N3CCN(S(C)(=O)=O)CC3)c3ccccc3n2)c1 | -34.1
CCCCSC(=S)NC1CCS(=O)(=O)C1 (stereo not drawn) | -6.03
CCOC(=O)Nc1ccc(S(=O)(=O)Nc2onc(C)c2C)cc1 | -1.17
Cc1ccccc1Cn1ccc(NC(=O)c2nn3cccnc3c2Cl)n1 | 7.31
COc1ccccc1NC(=O)CCN1CCCCCC1.Cl | 0.0165
COn1c(=O)c(-c2ccc(F)cc2)[n+]([O-])c2ccccc21 | 17.4
CSCCC(NC(=O)c1ccccc1Cl)C(=O)N1CCCCCCC1 (stereo not drawn) | -6.4
CCCS(=O)(=O)c1ccc(COC(=O)c2ccc(NC(C)=O)cc2)cc1 | 17.3

SMILES | hERG current change (%, negative = inhibition) at 10uM [%]
COc1ccc(C(c2nnnn2CC2CCCO2)N2CCC(C(N)=O)CC2)cc1 (stereo not drawn) | 9.42
COc1ccccc1C(=O)CSc1n[nH]c(N)n1 | 21.9
COc1cc(C(CC(=O)N2CCN(c3ccccc3)CC2)c2c(OC)cc(OC)c3ccc(=O)oc23)cc(OC)c1OC (stereo not drawn) | -29
CCn1c(-c2csc3c2CCCC3)n[nH]c1=S | 16.9
O=C1CSC(c2ccccn2)N1c1ccccc1F (stereo not drawn) | 22.6
Cc1ccc(-c2ccc(CCC(=O)O)o2)cc1 | 14.5
Cc1cc(C)c(S(=O)(=O)N2CCCCC2CCNC(=O)C(=O)NCc2cccnc2)c(C)c1 (stereo not drawn) | -41.7
CCOC(=O)c1ccccc1NC(=O)CC1SC(=NC)N(C)C1=O (stereo not drawn) | 3.8
CCCN(CC(=O)Nc1ccccc1C)C(=O)/C=C/c1ccc(S(=O)(=O)N2CCCCCC2)cc1 | -5.42
Cn1c(-c2ccccc2)c(/C=N/NC(=O)c2cccnc2)c2ccccc21 | 18.5
Cc1onc(-c2c(Cl)cccc2Cl)c1C(O)c1ccc(F)cc1 (stereo not drawn) | -30.4
CSc1cnc2c(N)nc(N(C)C)nc2n1 | 2.74
Cc1cc(-c2n[nH]c(=S)n2/N=C/c2c[nH]c3ccccc23)n[nH]1 | 16.3
COc1ccc(-c2nc(CN3CCN(C(=O)c4ccco4)CC3)c(C)o2)cc1OC | 1.8
COc1ccc(CNC(=O)c2cc3c(C)nc4ccccc4c3o2)c(OC)c1 | -8.06
Cc1cc(NC(=O)CCC(=O)N(CC(=O)NCC2CCCO2)c2ccc3c(c2)OCCO3)no1 (stereo not drawn) | 12
CCOC(=O)[C@H]1[C@H]2COc3cc(OC)ccc3[C@@H]2N2C(=O)CN(Cc3ccc(C)cc3)C(=O)[C@@]12C | -19.8
CCOc1ccc(CCNC(=O)C2CCN(S(=O)(=O)N3CC(C)CC(C)C3)CC2)cc1OCC (stereo not drawn) | 20.7
CN(CC1COc2ccccc2O1)c1nc(-c2cccnc2)nc2ccccc12 (stereo not drawn) | -17.5

SMILES | hERG current change (%, negative = inhibition) at 10uM [%]
CC1CC(C)CN(C(=O)CCS(=O)(=O)c2ccc3c(c2)NC(=O)CS3)C1 (stereo not drawn) | 5.23
CCCC[C@@H]1CNC(=O)C(=O)N1CCc1cccc2ccccc12 | -1.09
CC(C)c1ccc(-n2c(O)c(/C=N/NC(=O)c3ccncc3)c(=O)[nH]c2=O)cc1 | 12.6
Cc1ccc(Sc2ccc(NC(=O)CCl)cc2)cc1C | 5.84
Cc1ccccc1C1C(=O)c2ccccc2C1=O | 20.1
Cc1ccc(C(=O)NCCNC(=O)c2cnccn2)cc1 | 7.28
Cc1cnn(C(=O)c2cc(-c3ccccn3)nc3ccc(Cl)cc23)c1 | 8.52
CC(C)(C)c1ccc(S(=O)(=O)NCC2CCCO2)cc1 (stereo not drawn) | 1.6
C=CCn1c(Cc2nc3ccc(Cl)cc3[nH]2)n[nH]c1=S | 22.9
Cc1ccc(NC(=O)COC(=O)c2ccc(Cl)nc2)cc1S(=O)(=O)N1CCCCC1 | 15.2
O=C(CN(C1CCCCC1)S(=O)(=O)c1ccccc1)NCc1cccnc1 | -30
COc1ccc(Cl)cc1NC(=O)CSc1nnc(-c2ccncc2)n1CC1CCCO1 (stereo not drawn) | -28.2
Cc1ccc2c(c1)C(c1ccccc1)N(C(=O)c1cc3ccccc3oc1=O)CC(=O)N2 (stereo not drawn) | -65.1
CC(=O)N1CCCSC1=Nc1ccccc1 | 12.8
CC(NC(=O)COC(=O)CCc1nc2ccccc2c(=O)[nH]1)c1ccccc1 (stereo not drawn) | -19
Cc1ccc(-c2cnn3c(N4CCOCC4)cc(C)nc23)cc1 | 0.229
CCCCC(=O)OCC(=O)Nc1ccc(SC(F)F)cc1 | 4.23
COC(=O)c1sc2ccccc2c1-n1cccc1C(=O)C(=O)Nc1ccc(F)cc1 | -5.86
COc1ccc(Nc2nc(Cl)nc(NCc3ccco3)n2)cc1 | 9.37
